Measurements: the supplement of paper PMC4967469
The IC50 comes from the fitted curve, where viability falls to half of the control; fits outside the tested doses are given as limits. AUC, from the same fit, is the share of area under the viability curve across the 256-fold dose range: 1 means no effect, lower means more sensitive. For some assays here: An inferred top dose was derived from the fitted curves, not read from the paper. For some assays here: Drugs with an entry number were screened twice under separate entries, and the two screens often disagree.

Tests used:
Experiment in all cases: Viability of human cancer cell lines after 72 h of drug (GDSC screen)
[1] = compound: O=C(Nc1cccc(Nc2ncc(Br)c(NCCc3cnc[nH]3)n2)c1)N1CCCC1 [BX-912]; conditions: top dose 10.24 µM; top dose inferred
Procedure: (§1)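 Human cancer cell lines in 384-well plates, medium with 10% serum, drug for 72 h over a 256-fold dose range (nine 2-fold or five 4-fold steps up to the top dose). Adherent lines were fixed and stained with the nucleic acid dye Syto60, suspension lines read with resazurin; signal relative to control wells, capped at 0 and 100%. One two-parameter sigmoid per drug and line, fitted in a mixed model over all curves with the slope shared within a line.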

[2] = compound: Cc1ccc(NC(=O)c2ccc(CN3CCN(C)CC3)cc2)cc1Nc1nc(-c2cccnc2)cs1 [Masitinib]; conditions: top dose 20 µM
Procedure: as §1

[3] = compound: CC/C(=C(\c1ccccc1)c1ccc(OCCN(C)C)cc1)c1ccccc1 [Tamoxifen]; conditions: top dose 5 µM
Procedure: as §1

[4] = compound: Cc1c(N)nc([C@H](CC(N)=O)NC[C@H](N)C(N)=O)nc1C(=O)N[C@H](C(=O)N[C@H](C)[C@@H](O)[C@H](C)C(=O)N[C@H](C(=O)NCCc1nc(-c2nc(C(=O)NCCC[S+](C)C)cs2)cs1)[C@@H](C)O)[C@@H](OC1OC(CO)C(O)C(O)C1OC1OC(CO)C(O)C(OC(N)=O)C1O)c1cnc[nH]1 [Bleomycin]
Procedure: as §1

[5] = compound: COc1cc(N2CCC(C(N)=O)CC2)ccc1Nc1nc(N)c(Cl)c(Nc2ccccc2S(=O)(=O)C(C)C)n1 [HG-5-88-01]; conditions: top dose 10 µM; top dose inferred
Procedure: as §1

[6] = compound: O=C(/C=C/c1ccc(CN(CCO)CCc2c[nH]c3ccccc23)cc1)NO [LAQ824]; conditions: top dose 1.024 µM; top dose inferred
Procedure: as §1

[7] = compound: CN(NC(=O)CC(=O)NN(C)C(=S)c1ccccc1)C(=S)c1ccccc1 [Elesclomol]; conditions: top dose 0.2 µM; top dose inferred
Procedure: as §1

[8] = compound: O=S(=O)(O)c1ccc2cc(N=Nc3cc(S(=O)(=O)O)c4cccnc4c3O)ccc2c1 [NSC-87877]; conditions: top dose 16 µM; top dose inferred
Procedure: as §1

[9] = compound: O=C(Nc1ccc(OC(F)(F)F)cc1)c1sccc1NCc1ccnc2ccccc12 [OSI-930]; conditions: top dose 10.24 µM
Procedure: as §1

[10] = compound: CCCC(=O)OCc1ccc(OC(=O)/C=C(C)/C=C/C=C(C)/C=C/C2=C(C)CCCC2(C)C)cc1 [VNLG/124]; conditions: top dose 5.12 µM; top dose inferred
Procedure: as §1

[11] = top dose 50 µM, screen: GDSC drug entry 1378, top dose inferred
[12] = top dose 64 µM, screen: GDSC drug entry 190

Cell Line: RCM-1 (large intestine, adherent)
- AUC [1]: 0.981
- IC50 [1]: > 10.2 µM
- AUC [2]: 0.949
- IC50 [2]: > 20 µM
- AUC [3]: 0.981
- IC50 [3]: > 5 µM
- AUC [4, 11]: 0.913
- IC50 [4, 11]: > 50 µM
- AUC [4, 12]: 0.383
- IC50 [4, 12]: 1.77 µM
- AUC [5]: 0.927
- IC50 [5]: > 10 µM
- AUC [6]: 0.606
- IC50 [6]: 0.134 µM
- AUC [7]: 0.963
- IC50 [7]: > 0.2 µM
- AUC [8]: 0.984
- IC50 [8]: > 16 µM
- AUC [9]: 0.951
- IC50 [9]: > 10.2 µM
- AUC [10]: 0.98
- IC50 [10]: > 5.12 µM

Cell Line: COR-L95 (small cell lung carcinoma, adherent)
- AUC [1]: 0.963
- IC50 [1]: > 10.2 µM
- AUC [2]: 0.854
- IC50 [2]: 19.8 µM
- AUC [3]: 0.98
- IC50 [3]: > 5 µM
- AUC [4, 11]: 0.955
- IC50 [4, 11]: > 50 µM
- AUC [4, 12]: 0.54
- IC50 [4, 12]: 5.23 µM
- AUC [5]: 0.946
- IC50 [5]: > 10 µM
- AUC [6]: 0.567
- IC50 [6]: 0.1 µM
- AUC [7]: 0.661
- IC50 [7]: 0.0378 µM
- AUC [8]: 0.978
- IC50 [8]: > 16 µM
- AUC [9]: 0.979
- IC50 [9]: > 10.2 µM
- AUC [10]: 0.984
- IC50 [10]: > 5.12 µM

Cell Line: MLMA (hairy cell leukaemia, semi-adherent)
- AUC [1]: 0.728
- IC50 [1]: 2.86 µM
- AUC [2]: 0.826
- IC50 [2]: 12.2 µM
- AUC [3]: 0.982
- IC50 [3]: > 5 µM
- AUC [4, 11]: 0.753
- IC50 [4, 11]: 16.9 µM
- AUC [4, 12]: 0.274
- IC50 [4, 12]: 0.908 µM
- AUC [5]: 0.963
- IC50 [5]: > 10 µM
- AUC [6]: 0.371
- IC50 [6]: 0.0281 µM
- AUC [7]: 0.513
- AUC [8]: 0.984
- IC50 [8]: > 16 µM
- AUC [9]: 0.966
- IC50 [9]: > 10.2 µM
- AUC [10]: 0.986
- IC50 [10]: > 5.12 µM

Cell Line: SLVL (B-cell lymphoma, suspension)
- AUC [1]: 0.725
- IC50 [1]: 2.92 µM
- AUC [2]: 0.862
- IC50 [2]: 18.9 µM
- AUC [3]: 0.96
- IC50 [3]: > 5 µM
- AUC [4, 11]: 0.639
- IC50 [4, 11]: 7.78 µM
- AUC [4, 12]: 0.266
- IC50 [4, 12]: 0.823 µM
- AUC [5]: 0.943
- IC50 [5]: > 10 µM
- AUC [6]: 0.318
- IC50 [6]: 0.0191 µM
- AUC [7]: 0.859
- IC50 [7]: 0.182 µM
- AUC [8]: 0.983
- IC50 [8]: > 16 µM
- AUC [9]: 0.977
- IC50 [9]: > 10.2 µM
- AUC [10]: 0.975
- IC50 [10]: > 5.12 µM

Cell Line: MDA-MB-415 (breast, adherent)
- AUC [1]: 0.982
- IC50 [1]: > 10.2 µM
- AUC [2]: 0.983
- IC50 [2]: > 20 µM
- AUC [3]: 0.957
- IC50 [3]: > 5 µM
- AUC [4, 11]: 0.96
- IC50 [4, 11]: > 50 µM
- AUC [4, 12]: 0.738
- IC50 [4, 12]: 24.7 µM
- AUC [5]: 0.874
- IC50 [5]: > 10 µM
- AUC [6]: 0.606
- IC50 [6]: 0.138 µM
- AUC [7]: 0.811
- IC50 [7]: 0.153 µM
- AUC [8]: 0.977
- IC50 [8]: > 16 µM
- AUC [9]: 0.9
- IC50 [9]: > 10.2 µM
- AUC [10]: 0.976
- IC50 [10]: > 5.12 µM

Cell Line: PCI-6A (head and neck, adherent)
- AUC [1]: 0.873
- IC50 [1]: 9.52 µM
- AUC [2]: 0.951
- IC50 [2]: > 20 µM
- AUC [3]: 0.986
- IC50 [3]: > 5 µM
- AUC [4, 11]: 0.462
- IC50 [4, 11]: 2.47 µM
- AUC [4, 12]: 0.634
- IC50 [4, 12]: 9.31 µM
- AUC [5]: 0.982
- IC50 [5]: > 10 µM
- AUC [6]: 0.246
- IC50 [6]: 0.0121 µM
- AUC [7]: 0.45
- IC50 [7]: 0.00913 µM
- AUC [8]: 0.947
- IC50 [8]: > 16 µM
- AUC [9]: 0.987
- IC50 [9]: > 10.2 µM
- AUC [10]: 0.918
- IC50 [10]: > 5.12 µM

Cell Line: TK10 (kidney, adherent)
- AUC [1]: 0.889
- IC50 [1]: > 10.2 µM
- AUC [2]: 0.896
- IC50 [2]: > 20 µM
- AUC [3]: 0.973
- IC50 [3]: > 5 µM
- AUC [4, 11]: 0.674
- IC50 [4, 11]: 10.7 µM
- AUC [4, 12]: 0.406
- IC50 [4, 12]: 2.09 µM
- AUC [5]: 0.942
- IC50 [5]: > 10 µM
- AUC [6]: 0.416
- IC50 [6]: 0.0359 µM
- AUC [7]: 0.689
- IC50 [7]: 0.0476 µM
- AUC [8]: 0.982
- IC50 [8]: > 16 µM
- AUC [9]: 0.979
- IC50 [9]: > 10.2 µM
- AUC [10]: 0.976
- IC50 [10]: > 5.12 µM

Cell Line: GR-ST (lymphoblastic leukaemia, suspension)
- AUC [1]: 0.82
- IC50 [1]: 7.55 µM
- AUC [2]: 0.646
- IC50 [2]: 3.46 µM
- AUC [3]: 0.909
- IC50 [3]: > 5 µM
- AUC [4, 11]: 0.887
- IC50 [4, 11]: > 50 µM
- AUC [4, 12]: 0.751
- IC50 [4, 12]: 25.1 µM
- AUC [5]: 0.77
- IC50 [5]: 4.62 µM
- AUC [6]: 0.493
- IC50 [6]: 0.0611 µM
- AUC [7]: 0.869
- IC50 [7]: > 0.2 µM
- AUC [8]: 0.978
- IC50 [8]: > 16 µM
- AUC [9]: 0.913
- IC50 [9]: > 10.2 µM
- AUC [10]: 0.968
- IC50 [10]: > 5.12 µM

Cell Line: C32 (melanoma, adherent)
- AUC [1]: 0.978
- IC50 [1]: > 10.2 µM
- AUC [2]: 0.985
- IC50 [2]: > 20 µM
- AUC [3]: 0.984
- IC50 [3]: > 5 µM
- AUC [4, 11]: 0.744
- IC50 [4, 11]: 16.6 µM
- AUC [4, 12]: 0.857
- IC50 [4, 12]: 57.7 µM
- AUC [5]: 0.977
- IC50 [5]: > 10 µM
- AUC [6]: 0.869
- IC50 [6]: > 1.02 µM
- AUC [7]: 0.647
- IC50 [7]: 0.0328 µM
- AUC [8]: 0.976
- IC50 [8]: > 16 µM
- AUC [9]: 0.972
- IC50 [9]: > 10.2 µM
- AUC [10]: 0.985
- IC50 [10]: > 5.12 µM

Cell Line: VAL (B-cell lymphoma, suspension)
- AUC [1]: 0.651
- IC50 [1]: 1.68 µM
- AUC [2]: 0.737
- IC50 [2]: 5.96 µM
- AUC [3]: 0.982
- IC50 [3]: > 5 µM
- AUC [4, 11]: 0.861
- IC50 [4, 11]: 42.7 µM
- AUC [4, 12]: 0.191
- IC50 [4, 12]: 0.477 µM
- AUC [5]: 0.982
- IC50 [5]: > 10 µM
- AUC [6]: 0.539
- IC50 [6]: 0.0817 µM
- AUC [7]: 0.692
- IC50 [7]: 0.0432 µM
- AUC [8]: 0.98
- IC50 [8]: > 16 µM
- AUC [9]: 0.916
- IC50 [9]: > 10.2 µM
- AUC [10]: 0.951
- IC50 [10]: > 5.12 µM

Cell Line: ATN-1 (T-cell lymphoblastic leukaemia, suspension)
- AUC [1]: 0.227
- IC50 [1]: 0.11 µM
- AUC [2]: 0.866
- IC50 [2]: 15.9 µM
- AUC [3]: 0.916
- IC50 [3]: > 5 µM
- AUC [4, 11]: 0.695
- IC50 [4, 11]: 10.5 µM
- AUC [4, 12]: 0.754
- IC50 [4, 12]: 20.2 µM
- AUC [5]: 0.945
- IC50 [5]: > 10 µM
- AUC [6]: 0.336
- IC50 [6]: 0.0232 µM
- AUC [7]: 0.446
- IC50 [7]: 0.00898 µM
- AUC [8]: 0.98
- IC50 [8]: > 16 µM
- AUC [9]: 0.967
- IC50 [9]: > 10.2 µM
- AUC [10]: 0.669
- IC50 [10]: 0.914 µM

Cell Line: SK-MEL-2 (melanoma, adherent)
- AUC [1]: 0.916
- IC50 [1]: > 10.2 µM
- AUC [2]: 0.939
- IC50 [2]: > 20 µM
- AUC [3]: 0.985
- IC50 [3]: > 5 µM
- AUC [4, 11]: 0.57
- IC50 [4, 11]: 4.89 µM
- AUC [4, 12]: 0.596
- IC50 [4, 12]: 7.4 µM
- AUC [5]: 0.899
- IC50 [5]: > 10 µM
- AUC [6]: 0.551
- IC50 [6]: 0.0886 µM
- AUC [7]: 0.56
- IC50 [7]: 0.0183 µM
- AUC [8]: 0.987
- IC50 [8]: > 16 µM
- AUC [9]: 0.984
- IC50 [9]: > 10.2 µM
- AUC [10]: 0.982
- IC50 [10]: > 5.12 µM
